Some of the results follow.
tested on: PF3D7_0420300 AP2 domain 1 (GST-tagged); assay: gcPBM binding intensity (ln(normalized median fluorescence intensity)); higher = stronger DNA binding
Procedure, shortened: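 GST-fused DNA-binding domains of P. falciparum, expressed in E. coli, were applied at about 25 μg on average for 1 h to an Agilent 4 × 180k array of primer-extended double-stranded 36-bp intergenic genomic probes and negative controls. Binding intensity is the highest Masliner-normalised natural-log median intensity across replicate spots of either probe orientation, measured with Alexa488 anti-GST antibody and a 488 nm scan.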

Sequence | gcPBM binding intensity (ln)
TTTGTAAAATAATATCTTTCATGTCCTTACTAATTA [GTGCAC_negctrl_site145] | 9.21
ATTATATATATATATAAACACACATAAATATAAATA [CACACA_site8291] | 9.56
TATTTATTTAAAGGCACACATATTTTTATACTTTCT [CACACA_site3163] | 9.34
GAAAAAAAAAAAAATACACACAAATTGGTATATAAT [CACACA_site4369] | 9.56
AATACTCTATTTTATAGTACATATATTATTAATCAC [XGTACX_site6622] | 9.28
TAGCTCGTTCGGAGCACACACATATAAATAAATATA [CACACA_site7002] | 9.2
TATCAAATCCAAAGGGGTACATTTTGTTGTCCTAAT [XGTACX_site5575] | 9.13
TAGGGATTATACCACACACACATACCCATAAATATA [CACACA_site5719] | 9.85
ATAGACAGCGCACAAACACACAAACACGCACGCACA [CACACA_site6349] | 9.6
TGTTTTTTATTTAATTGTACGAATTAAAAAAAATAA [XGTACX_site3009] | 8.78
AATATTCATATGCAGGTGCATTAATTTTTATTAATT | 9.22
TTCCAACCATAGTATTCACACATTGTTTTATTCCAT [CACACA_site4927] | 9.5
TTTCGTAAACAAATTTGTACGTACAAATTTATAAAT [XGTACX_site8175] | 9.01
TTTTTACTAATAAGATGTACATATATCCTAAGCATA [XGTACX_site251] | 9.09
TACATACATACATACACACATACATATATATATATA [CACACA_site1387] | 9.52
TCTTTTATTAGTAAAAGTACTTATATAAATATTATA [XGTACX_site5099] | 8.96
ATAATATAATAAACGTGTACACAATTAAATTATTAT [XGTACX_site3491] | 9.5
TTTTTATTACTTCTCTGTACTCAGGAAAATAAATAT [XGTACX_site2092] | 8.95
TGAATGTAAGAAAATACACACTAGTATAGTAACACC [CACACA_site5131] | 9.82
TTGATTATAATTAGTACACACAAAATACATGCGGGG [CACACA_site2277] | 9.68
AAATATATAATACATATGTAATATGCATATATATAT [GTGCAC_negctrl_site450] | 9.24
TATTTACATGTAAAAGGTACACACATTATATATACA [XGTACX_site2157] | 9.62

Sequence | gcPBM binding intensity (ln)
TTTATTATTTTTTGTAGTACTTTATATAAAAGTTCT [XGTACX_site4494] | 9.07
ATACACTTTTATATATCAATACATTATGTATTAAGT [CACACA_negctrl_site421] | 9.21
CCTCTTTATTTTAATTGTACATTTTTGTAGGTTTTT [XGTACX_site7130] | 9.5
ATGTATATATATATATGTACTAATTAGTAATTTACG [XGTACX_site6276] | 9.37
AAAACAAACCCATTTACACACATAAATAAATCAATT [CACACA_site6126] | 9.79
TCCTTTTTTTTGTAATGTACTTAGTTTGGTTATATG [XGTACX_site8208] | 9.72
TGGAAAAATAGGCACACACACATATATACATATATA [CACACA_site1297] | 10
TTTTAATAACCAATCCGTACATATAATCTTTATATT [XGTACX_site536] | 9.18
TGAAAAATTACAAAAATAATAAAATGAAATAATAAA [GTGCAC_negctrl_site53] | 9.27
TTATTATATTCTCCTTCACACACAAAAATATTTCAT [CACACA_site8738] | 9.64
TAAAAGTTATAAGAGTGTACGTATATTTATATATCA [XGTACX_site2972] | 9.18
AGGACTAATATTTGAACACACATATAACATATACAT [CACACA_site7803] | 9.61
CTTTTAAATTATTTTTGTACATAATTATATATATAT [XGTACX_site4128] | 9.26
AACTATAAATATAAATGTACACATATGTAATATATA [XGTACX_site6085] | 9.4
TACTGTTTAAAATATAAACACACATTGTTTGCTTTA [CACACA_site8358] | 9.27
AAAAGGAAAATTTTCTTAGTAACTGCATTAAGAGAT [GTGCAC_negctrl_site675] | 9.19
AAGCATATTATAAACACACACTGTATAAAGATATAT [CACACA_site6277] | 9.69
AAGTATAACCTTTATAATAATGACATGACCGATTTT [CACACA_negctrl_site395] | 9.33
ATAATACGAATTTGTAGTACATTTATAATAACATGA [XGTACX_site2614] | 9.28
TATAACCGAATGTGTACACAAAATAATGTTATATAT [CACACA_site5627] | 9.49
ATATAACGAATAATTACACACTATAAAAAAAGATCT [CACACA_site2862] | 9.67
TAAAAAACTTCGTGTTCACACATGTACTATATTATT [CACACA_site4796] | 9.2

Sequence | gcPBM binding intensity (ln)
ACCCATAAGATAATTACACACAATACATCCCTATAT [CACACA_site5262] | 9.84
TTTTTTTTTTTTTGTTGTACATTAAATATATTATTA [XGTACX_site7254] | 9.13
CACATACACATACACATACACACGCATAGAAACATA [CACACA_site2136] | 9.79
TTGTATAAATATGTATGTATATAATATATGTAAAGA [TGCATGCA_negctrl_site93] | 9.4
AAATCGTGTACATTGACACACATAATTTTTTTTATA [CACACA_site2463] | 9.4
AATATATTTATATAGTGTACATTTTTTATATATGTA [XGTACX_site8142] | 9.18
TATTAATTTTTATTATGTACATAAATAATTTATATT [XGTACX_site5456] | 9
TACTATAAAATGGAATGTACACATAAATATATCTAA [XGTACX_site6137] | 9.32
ATATGATGTAAAAGCACACATATATATATATATATA [CACACA_site4018] | 9.15
GTTTATAACTATGTGTGTACACATTAATCGTTTTTC [XGTACX_site4364] | 9.66
AAAAAGAAGATATATACACACCAAAAAAAAAAAAAA [CACACA_site7471] | 9.45
ATAATATATTATTATAGTACTTTATTTTATTTTATG [XGTACX_site2387] | 9.31
GGATAGATCATTTACACACACAAAAAAAAAAAAAAA [CACACA_site2139] | 9.52
AATATATATATACATACATGCATACATATATATATA [TGCATGCA_site784] | 9.24
TAAGGAAAAAGAAAAAGTACATTATATAATAAATAG [XGTACX_site3282] | 9.2
CAAATATATGTTTTCACACACAAAAGAAATGAAACC [CACACA_site2162] | 9.81
AAAAAAAATAAAATGAATAAATAAGAATTACATATT [CACACA_negctrl_site863] | 9.28
AAAAAACACGCACATACACACAAAAATGTTATAAAT [CACACA_site6188] | 9.87
TTATATTTTTTAATTACACACAATTTTTATAAATAT [CACACA_site4148] | 9.38
ATCTCATAAAACCGCACACACATAAAATTTGCATTA [CACACA_site3891] | 9.69
CTAGTAAAAAATGCAAGTACATACATTATAAGTATA [XGTACX_site3908] | 9.41
ATATTGGAGCACAACACACACAAGTATAAATATGGA [CACACA_site6834] | 9.98

Sequence | gcPBM binding intensity (ln)
ATTTCATATACAAATTGTACATACAATTTTATGTTT [XGTACX_site3240] | 9.21
TTAAAAATAATATTATGTACTAAGAATAAATATATA [XGTACX_site3100] | 8.94
TCTTGTAAATATATGTGTATATTATATTTTATTATA [TGCATGCA_negctrl_site117] | 9.42
TGTTAAAATAAAATCTATTACATTTTTATGGTTATA [XGTACX_negctrl_site525] | 8.97
CTTAATATTCTTTAAAGTACACAAAATAAGAATATA [XGTACX_site5489] | 8.96
TGCAAGGAAAAACACACACACACATAAATGTATATA [CACACA_site751] | 10.1
TACATAAATTAAAACACACACACACTAATAAAAAAA [CACACA_site8712] | 10.1
ATATGTATGTATGTATGTACTTATTTATTTATTAAT [XGTACX_site8018] | 9.36
TAGCTCGTTCGGAGCACACACATATATATATATATA [CACACA_site1948] | 9.28
GTTTTATTTTGTTTCTATTTGACACATGTGATTATT [CACACA_negctrl_site1246] | 9.7
ATTCAATATATATACACACACACTTTTAATAATTAA [CACACA_site3770] | 9.85
TTTTTTTTTGAATATTGTACATATATATTACTTTTA [XGTACX_site5520] | 9.17
AAAAAATTATATAAATGTACATTTTGGCTAGACATG [XGTACX_site5977] | 9.26
CATATATATAATTATTCACACAATAGTTAAAAGTAT [CACACA_site5302] | 9.4
AAAGAGAACAGAAGTACACACATGTTCTTTTAGTAA [CACACA_site5557] | 9.34
ATATTCTGCTGTTTAGTGCAATTATGAAATTATGAT | 9.18
TTGATTTTTATTTTTAAAATAAATAAATTTCAAATG [TGCATGCA_negctrl_site199] | 8.63
TAAAAAATAAAAATTGCACACTAAAAAATTACCCAC [CACACA_site5823] | 9.7
TAAAAAGAAATGTAAAGTACAAATTTGAATAACATG [XGTACX_site7981] | 9.37
TTTTTTTTTCTTTGGTGTACAATGTAATAGAAAATA [XGTACX_site227] | 8.91
AAAAAAAACAAACACACACACAAATATTTATATATT [CACACA_site436] | 10.1
ATATGTATTTATATATGTTTGATTTTTTTTTTTTTT [TGCATGCA_negctrl_site506] | 9.32
